# This is one part of the list.
# Test system: PF3D7_0420300 AP2 domain 1 (GST-tagged)
# Test: gcPBM binding intensity (ln(normalized median fluorescence intensity)); higher = stronger DNA binding
# How it was run: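 The highest Masliner-normalised natural-log median intensity across replicate spots of either probe orientation is reported as binding intensity. GST-tagged P. falciparum DNA-binding domains expressed in E. coli were applied for 1 h to an Agilent 4 × 180k array of primer-extended double-stranded 36-bp intergenic genomic probes plus negative controls, and bound protein was detected with Alexa488 anti-GST antibody and scanned at 488 nm.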
row,Sequence,gcPBM binding intensity (ln)
1,TTTTTATTTTTTTACAGTACATAAAATAAATAAATA [XGTACX_site6596],8.84
2,TTTTTTTTATGGAAACGTACATACATACATTAAAGA [XGTACX_site7401],8.91
3,TATTTATATATTTATGCATGTTATAGGCAAAAATGT [TGCATGCA_site397],9.08
4,TATATTGATGATGATAGTACGTATGAATACAAAAAA [XGTACX_site4],9.2
5,CATAATAAGTATAACGTTAGTTACAAACAGCTTGTT [CACACA_negctrl_site937],9.39
6,TATTATTCAAAATTTGTGCACAAAATTAAAGGAACA,9.25
7,TTTTTAAATAAATGTTTTTATTATATACATATCAAT [TGCATGCA_negctrl_site423],9.04
8,AAAATAATGTATATAGTGCAAATGAAAACGAAAAAA [GTGCAC_site9455],9.77
9,TTGGTGATATTTTTCTCACACATTTACCAGAGATGT [CACACA_site4684],9.22
10,TTTGTTTTTTTGAGAGTGCAATATATATAAAAAGGG [GTGCAC_site9691],9.02
11,TATAAAATTCTGACTTGTACATGTGAAAAATAATTA [XGTACX_site1396],9.06
12,TATATATATATATAATGTACACATTTTTATAACTAT [XGTACX_site5714],9.16
13,AAAATACAATTTCTAGCACACAAAATATTATTATAA [CACACA_site9056],9.32
14,GCGTTGTTTTTAAAAAGTACATTTTTATATAAGTTA [XGTACX_site8780],9.22
15,AAAGATGGAAAAAAAAATTTGTGTGTTGAAAGATAT [GTGCAC_negctrl_site19],9.56
16,CTTAATATATGTGGCACACATGTGGAGTCCTATTAA [CACACA_site4281],9.33
17,AAAAAAATATTAATGTGTACATAATAATAACATATA [XGTACX_site8319],9.34
18,AAGAGTAAAATATGGTTGCACTAAAAATATATATTT [GTGCAC_site9484],9.22
19,TTATAGAGCTTATTCACACATACATATGTATTTATA [CACACA_site5775],9.3
20,TAAAACATATAAAGGTGTACGCCTTTTTGTATCAAT [XGTACX_site6064],9.24
21,ATAATAAAAATATACTGTACATTTGTAAATTCTTTT [XGTACX_site4655],9.2
22,TATATTTGTTGACACACACACAAAAAAAAAAAAAAA [CACACA_site7211],9.41
23,GTCTACTACACTAAATGTACAAGAAAAAAGAAAAAA [XGTACX_site4660],9.11

row,Sequence,gcPBM binding intensity (ln)
1,AACTTATTTAAATTCACACATATATAAAATACTTAT [CACACA_site4394],9.22
2,ATAAAGATATGACACACACACATATTATAGATATAT [CACACA_site7434],10.1
3,GATAACATAATATGTTGTACATAAAAATTTTTATCA [XGTACX_site1969],9.11
4,ATCAATTTAATTTATTGTACTTGTTTGTTTTTTTAT [XGTACX_site7544],9.65
5,ACATATGACTATAATACACACTTGTATTATTAATAT [CACACA_site6951],9.34
6,ATTTTAATTACATATACACACAAAGGTTCATAACAA [CACACA_site9008],9.51
7,ATTATTTTATTATAGTGTACTTTTTTAATCAAAGGA [XGTACX_site8921],9.08
8,AATTTTATTACTTTTACACACCTATATATTATTCAT [CACACA_site3273],9.75
9,TTTTAAAAAAAATATAAAAAAAGAGGAGGGATGGTA [GTGCAC_negctrl_site35],9.45
10,TACTCATAATATTGATAATTAAAAAGATAAACTATT [XGTACX_negctrl_site299],8.98
11,TAATTTAAACAAAAAAGTACAAATTTCTTTTTATTA [XGTACX_site5244],8.88
12,TATGTTTTTACGTGTGTGCACTTTGTAGAGATAAGT,9.48
13,GCCAAAAGGATATGCACACACACACCCATATATATA [CACACA_site2198],10.2
14,CATTATCATGTTTTTTGTACTCATAATAAAAAGCAG [XGTACX_site2056],8.92
15,CAAGGAACCGGACACACACACATAAATGTATTTATA [CACACA_site4574],9.82
16,TATATATAGAAACACACACACACCAAAGCGTAGCGC [CACACA_site62],10
17,ATTTACAAAAGGAAAGTGCAAACATGTGATTAAACA [CACACA_negctrl_site714],9.48
18,AAAAATGAATTATTTTGTACATATATATATATATAT [XGTACX_site3410],9.19
19,AATAATTGTTAAAGTTGTACTATACGTATATAAGAA [XGTACX_site1432],9.31
20,ATATTTTTATTTTCTTTACACACCACATAATTTTTT [CACACA_site4060],9.82
21,TCTAACAACATGCGCACACACATGAATATTCATATT [CACACA_site1540],9.62
22,ATTAGATATGTAAACTAAAATTATATTCATGATAAT [TGCATGCA_negctrl_site182],9.19
23,TTTCTTTTACATATTTGTACATATATAAATTTATAT [XGTACX_site1787],9.27

row,Sequence,gcPBM binding intensity (ln)
1,TCACATCTTATATACTGTACATTTCGAATATAAATT [XGTACX_site2508],9.35
2,TTCTTTAATACTTATTGTACAATATAATAATCACAA [XGTACX_site6364],9.12
3,TACTATATAAGTAAGGCATGCATGCCGATTTTTTTA [TGCATGCA_site100],9.09
4,AAAAAAAAAAAAATATGTACTTATTTTTATGTTAAA [XGTACX_site8802],8.84
5,TACTTAAAATATTTAACAAATAAATAAATAAATAAA [XGTACX_negctrl_site523],8.97
6,TGAAACCGTTACATGTGTACATATGTTACACATAAT [XGTACX_site7250],9.23
7,TATAATATATTATATACACACATTATGAAATCCACA [CACACA_site1330],9.6
8,AACACGCGCAGACACACACACACACCCACATATATA [CACACA_site2205],10.2
9,TATATGAACTTATATACACACCATTTTTGTAAATCT [CACACA_site4547],9.39
10,ATAAATATATTTTATAGTACATAAATATCAAAAAAA [XGTACX_site2334],9.2
11,ATTTTGATGCATGGGTTGCACTAACTTTTGCCCAGA,9.13
12,AAACAATACTGATATTGTACATAATAAAAAAAAATA [XGTACX_site3330],9.21
13,CATACATACCTATATACACACATATAAAATAATATA [CACACA_site7290],9.75
14,AGTATACAGATATATACACACATATTTATATTTATA [CACACA_site6394],9.54
15,TCTATATGTTGATTCACACATAAAGAATAAATAAAA [CACACA_site6017],9.02
16,TGTTATTATTTGTACACACACATATATATCCTTGTT [CACACA_site3616],10.1
17,GGCAACATTTGAAACACACACACATACAAACAAACA [CACACA_site3307],9.97
18,TAGTCGTTTTTTTAATGTACTCACGCATAATATAAT [XGTACX_site6499],9.19
19,TTAATTATAAGAAAAAGTACTCATTACATTATAGAA [XGTACX_site678],8.81
20,ATATAAATATTCCACACACACACAAAAAAAAAAAAA [CACACA_site7678],10
21,CATATACATCCACATACACACATACACCCATACACA [CACACA_site5038],9.74
22,TGAAAAGTAAAATACACACACATAATATAATTTATA [CACACA_site1989],9.99
23,AAAGGATATAGACACACACACACATATATATATATA [CACACA_site2200],10

row,Sequence,gcPBM binding intensity (ln)
1,ATCATTTTTAAAGGAACACACAAAAAAAATTAGAAT [CACACA_site1370],9.58
2,GTTCAAAATATGAACACACACATATAGATTTATATA [CACACA_site7054],9.5
3,ATTATTTTTTTTGTTACACACATGACTTATTTTTAT [CACACA_site3228],9.82
4,TATTTTTATATATGACGTACTCTACAATTATTAATG [XGTACX_site5818],9.2
5,TTTTTTTTTTTTGATGCACACACCTGAACGAGTTAA [CACACA_site317],9.42
6,AAAATATGTATGTAAAGTACTAATATACAAATTTTT [XGTACX_site5186],9.26
7,ATATATATATATATATGTACATATGTCAACTGTCTA [XGTACX_site8636],9.61
8,CATACATACAAACACACACACATATATATACATACA [CACACA_site852],10.2
9,TATGTATTAATGAGAACATGCAAAATAATAAACAAT [TGCATGCA_site362],9.72
10,ATATATCAAATAGACAAACACACAAAGGAAGAGTGA [CACACA_site3922],9.89
11,CATATACACGAACACACACACACACGCACAAAAAAA [CACACA_site6376],10.2
12,CACAGACACGGACACACACACACACCCAGACACATA [CACACA_site4357],10.2
13,ATAATTAATGATGTATGTACGGAATTTATATATTTG [XGTACX_site5685],9.19
14,ATAGTAATAGAATGATTGCACTTAAATTTTCCCTCT,9.19
15,GTATACATATTTATAATAATAAATGTCTTATATTTT [CACACA_negctrl_site688],9.17
16,TAATATATTAATATATGTACGTATTTTTATTAATAT [XGTACX_site5346],9.14
17,TTAAATAATTCTTTTAGTACACACGAATAAGCAGAT [XGTACX_site623],9.49
18,TATCTTATATATAAGTGTACGCAGATTCTTACGATA [XGTACX_site6058],8.98
19,TTTGTTCTTTTTGAAGTGCACTGAAATATAACAAAA,8.82
20,AAAAAAACACACACATATATATATATATATATATAT [GTGCAC_negctrl_site498],9.62
21,AAGAAAAAGAATAACCTTATTTCTATATACTAATTT [TGCATGCA_negctrl_site477],8.93
